# Reference: the supplement of paper PMC8728848
# The other results are listed elsewhere or left out.
# B1: Arath Fbox (Arabidopsis thaliana), NP_178341.1 (protein)
# chain: EFTWGRKRRVKSESSPFDSFPEDCISYIISFTNPRDACVAATVSKTFESTVKSDIIWEKFLPADYESLIPPSRVFSSKKELYFSLCNDPVLFDDDKKSVWLEKASGKRCLMLSAMNLSIIWGDNPQYWQWIPIPESRFEKVAKLRDVCWFEIRGRTNTRVLSPRTRYSAYIVFKGVDKCYGFQNVAIEAAVGVVGQEPSRRLICFSEAIRRGRRNVVKPKQREDGWMEIELGEFFNDGGIMDNDEIEMSALETKQLNRKCGLIIQGIEIRPAKILAAAAASFLEQKLISEEDLNSAVDHHHHHH
# Key:
# Test in all cases: glycan array binding signal (z-score within array); higher = stronger binding
# Settings in all cases: glycan notation: IUPAC condensed, linker removed
# [1] = biological target: Gal(b1-4)GlcNAc(b1-2)[Gal(b1-4)GlcNAc(b1-6)]Man(a1-6)[Gal(b1-4)GlcNAc(b1-2)Man(a1-3)]Man(b1-4)GlcNAc(b1-4)[Fuc(a1-6)]GlcNAc
# How it was run: (§1)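 The Consortium for Functional Glycomics database supplied 3228 glycan arrays, of which those lacking an available protein sequence were dropped. The binding signal, a within-array Z-score, was averaged across arrays of the same protein sequence and across linkers. Negative scores can be read as non-binding.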
# [2] = biological target: Gal(b1-4)GlcNAc(b1-2)[Gal(b1-4)GlcNAc(b1-6)]Man(a1-6)[GlcNAc(b1-4)][Gal(b1-4)GlcNAc(b1-2)Man(a1-3)]Man(b1-4)GlcNAc(b1-4)GlcNAc
# How it was run: as §1
# [3] = biological target: Gal(b1-4)GlcNAc(b1-2)[Gal(b1-4)GlcNAc(b1-6)]Man(a1-6)[GlcNAc(b1-4)][Gal(b1-4)GlcNAc(b1-2)[Gal(b1-4)GlcNAc(b1-4)]Man(a1-3)]Man(b1-4)GlcNAc(b1-4)[Fuc(a1-6)]GlcNAc
# How it was run: as §1
# [4] = biological target: Gal(b1-4)GlcNAc(b1-3)Gal(b1-3)GalNAc
# How it was run: as §1
# [5] = biological target: Gal(b1-4)GlcNAc(b1-3)Gal(b1-3)GlcNAc
# How it was run: as §1
# [6] = biological target: Gal(b1-4)GlcNAc(b1-3)Gal(b1-4)Glc
# How it was run: as §1
# [7] = biological target: Gal(b1-4)GlcNAc(b1-3)Gal(b1-4)GlcNAc
# How it was run: as §1
# [8] = biological target: Gal(b1-4)GlcNAc(b1-3)Gal(b1-4)GlcNAc(b1-2)Man(a1-3)[Gal(b1-4)GlcNAc(b1-3)Gal(b1-4)GlcNAc(b1-2)Man(a1-6)]Man(b1-4)GlcNAc(b1-4)GlcNAc
# How it was run: as §1
# [9] = biological target: Gal(b1-4)GlcNAc(b1-3)Gal(b1-4)GlcNAc(b1-2)Man(a1-3)[Gal(b1-4)GlcNAc(b1-3)Gal(b1-4)GlcNAc(b1-2)Man(a1-6)]Man(b1-4)GlcNAc(b1-4)[Fuc(a1-6)]GlcNAc
# How it was run: as §1
# [10] = biological target: Gal(b1-4)GlcNAc(b1-3)Gal(b1-4)GlcNAc(b1-2)[Gal(b1-4)GlcNAc(b1-3)Gal(b1-4)GlcNAc(b1-6)]Man(a1-6)[Gal(b1-4)GlcNAc(b1-3)Gal(b1-4)GlcNAc(b1-2)Man(a1-3)]Man(b1-4)GlcNAc(b1-4)GlcNAc
# How it was run: as §1
# [11] = biological target: Gal(b1-4)GlcNAc(b1-3)Gal(b1-4)GlcNAc(b1-2)[Gal(b1-4)GlcNAc(b1-3)Gal(b1-4)GlcNAc(b1-6)]Man(a1-6)[Gal(b1-4)GlcNAc(b1-3)Gal(b1-4)GlcNAc(b1-2)Man(a1-3)]Man(b1-4)GlcNAc(b1-4)[Fuc(a1-6)]GlcNAc
# How it was run: as §1
# [12] = biological target: Gal(b1-4)GlcNAc(b1-3)Gal(b1-4)GlcNAc(b1-3)Gal(b1-4)GlcNAc
# How it was run: as §1
# [13] = biological target: Gal(b1-4)GlcNAc(b1-3)Gal(b1-4)GlcNAc(b1-3)Gal(b1-4)GlcNAc(b1-2)Man(a1-3)[Gal(b1-4)GlcNAc(b1-3)Gal(b1-4)GlcNAc(b1-3)Gal(b1-4)GlcNAc(b1-2)Man(a1-6)]Man(b1-4)GlcNAc(b1-4)GlcNAc
# How it was run: as §1
# [14] = biological target: Gal(b1-4)GlcNAc(b1-3)Gal(b1-4)GlcNAc(b1-3)Gal(b1-4)GlcNAc(b1-2)Man(a1-3)[Gal(b1-4)GlcNAc(b1-3)Gal(b1-4)GlcNAc(b1-3)Gal(b1-4)GlcNAc(b1-2)Man(a1-6)]Man(b1-4)GlcNAc(b1-4)[Fuc(a1-6)]GlcNAc
# How it was run: as §1
# [15] = biological target: Gal(b1-4)GlcNAc(b1-3)Gal(b1-4)GlcNAc(b1-3)Gal(b1-4)GlcNAc(b1-2)[Gal(b1-4)GlcNAc(b1-3)Gal(b1-4)GlcNAc(b1-3)Gal(b1-4)GlcNAc(b1-6)]Man(a1-6)[Gal(b1-4)GlcNAc(b1-3)Gal(b1-4)GlcNAc(b1-3)Gal(b1-4)GlcNAc(b1-2)Man(a1-3)]Man(b1-4)GlcNAc(b1-4)[Fuc(a1-6)]GlcNAc
# How it was run: as §1
# [16] = biological target: Gal(b1-4)GlcNAc(b1-3)Gal(b1-4)GlcNAc(b1-3)Gal(b1-4)GlcNAc(b1-3)Gal(b1-4)GlcNAc(b1-2)Man(a1-3)[Gal(b1-4)GlcNAc(b1-3)Gal(b1-4)GlcNAc(b1-3)Gal(b1-4)GlcNAc(b1-3)Gal(b1-4)GlcNAc(b1-2)Man(a1-6)]Man(b1-4)GlcNAc(b1-4)GlcNAc
# How it was run: as §1
# [17] = biological target: Gal(b1-4)GlcNAc(b1-3)Gal(b1-4)GlcNAc(b1-3)Gal(b1-4)GlcNAc(b1-3)Gal(b1-4)GlcNAc(b1-2)Man(a1-3)[Gal(b1-4)GlcNAc(b1-3)Gal(b1-4)GlcNAc(b1-3)Gal(b1-4)GlcNAc(b1-3)Gal(b1-4)GlcNAc(b1-2)Man(a1-6)]Man(b1-4)GlcNAc(b1-4)[Fuc(a1-6)]GlcNAc
# How it was run: as §1
# [18] = biological target: Gal(b1-4)GlcNAc(b1-3)Gal(b1-4)GlcNAc(b1-3)Gal(b1-4)GlcNAc(b1-3)Gal(b1-4)GlcNAc(b1-2)[Gal(b1-4)GlcNAc(b1-3)Gal(b1-4)GlcNAc(b1-3)Gal(b1-4)GlcNAc(b1-3)Gal(b1-4)GlcNAc(b1-6)]Man(a1-6)[Gal(b1-4)GlcNAc(b1-3)Gal(b1-4)GlcNAc(b1-3)Gal(b1-4)GlcNAc(b1-3)Gal(b1-4)GlcNAc(b1-2)Man(a1-3)]Man(b1-4)GlcNAc(b1-4)[Fuc(a1-6)]GlcNAc
# How it was run: as §1
# [19] = biological target: Gal(b1-4)GlcNAc(b1-3)Gal(b1-4)GlcNAc(b1-3)Gal(b1-4)GlcNAc(b1-3)Gal(b1-4)GlcNAc(b1-3)Gal(b1-4)GlcNAc(b1-2)Man(a1-3)[Gal(b1-4)GlcNAc(b1-3)Gal(b1-4)GlcNAc(b1-3)Gal(b1-4)GlcNAc(b1-3)Gal(b1-4)GlcNAc(b1-3)Gal(b1-4)GlcNAc(b1-2)Man(a1-6)]Man(b1-4)GlcNAc(b1-4)GlcNAc
# How it was run: as §1
# [20] = biological target: Gal(b1-4)GlcNAc(b1-3)Gal(b1-4)GlcNAc(b1-3)Gal(b1-4)GlcNAc(b1-3)Gal(b1-4)GlcNAc(b1-3)Gal(b1-4)GlcNAc(b1-2)Man(a1-3)[Gal(b1-4)GlcNAc(b1-3)Gal(b1-4)GlcNAc(b1-3)Gal(b1-4)GlcNAc(b1-3)Gal(b1-4)GlcNAc(b1-3)Gal(b1-4)GlcNAc(b1-2)Man(a1-6)]Man(b1-4)GlcNAc(b1-4)[Fuc(a1-6)]GlcNAc
# How it was run: as §1
# [21] = biological target: Gal(b1-4)GlcNAc(b1-3)Gal(b1-4)GlcNAc(b1-3)Gal(b1-4)GlcNAc(b1-3)Gal(b1-4)GlcNAc(b1-3)Gal(b1-4)GlcNAc(b1-2)[Gal(b1-4)GlcNAc(b1-3)Gal(b1-4)GlcNAc(b1-3)Gal(b1-4)GlcNAc(b1-3)Gal(b1-4)GlcNAc(b1-3)Gal(b1-4)GlcNAc(b1-6)]Man(a1-6)[Gal(b1-4)GlcNAc(b1-3)Gal(b1-4)GlcNAc(b1-3)Gal(b1-4)GlcNAc(b1-3)Gal(b1-4)GlcNAc(b1-3)Gal(b1-4)GlcNAc(b1-2)Man(a1-3)]Man(b1-4)GlcNAc(b1-4)[Fuc(a1-6)]GlcNAc
# How it was run: as §1
# [22] = biological target: Gal(b1-4)GlcNAc(b1-3)Gal(b1-4)GlcNAc(b1-3)Gal(b1-4)GlcNAc(b1-3)Gal(b1-4)GlcNAc(b1-3)Gal(b1-4)GlcNAc(b1-3)Gal(b1-4)GlcNAc(b1-2)Man(a1-3)[Gal(b1-4)GlcNAc(b1-3)Gal(b1-4)GlcNAc(b1-3)Gal(b1-4)GlcNAc(b1-3)Gal(b1-4)GlcNAc(b1-3)Gal(b1-4)GlcNAc(b1-3)Gal(b1-4)GlcNAc(b1-2)Man(a1-6)]Man(b1-4)GlcNAc(b1-4)GlcNAc
# How it was run: as §1
# [23] = biological target: Gal(b1-4)GlcNAc(b1-3)Gal(b1-4)GlcNAc(b1-3)GalNAc
# How it was run: as §1
# [24] = biological target: Gal(b1-4)GlcNAc(b1-3)Gal(b1-4)GlcNAc(b1-3)[Gal(b1-4)GlcNAc(b1-3)Gal(b1-4)GlcNAc(b1-6)]GalNAc
# How it was run: as §1
# [25] = biological target: Gal(b1-4)GlcNAc(b1-3)Gal(b1-4)GlcNAc(b1-6)[Gal(b1-3)]GalNAc
# How it was run: as §1
# [26] = biological target: Gal(b1-4)GlcNAc(b1-3)Gal(b1-4)[Fuc(a1-3)]GlcNAc(b1-3)Gal(b1-4)[Fuc(a1-3)]GlcNAc
# How it was run: as §1
# [27] = biological target: Gal(b1-4)GlcNAc(b1-3)GalNAc
# How it was run: as §1
# [28] = biological target: Gal(b1-4)GlcNAc(b1-3)[Fuc(a1-3)GlcNAc(b1-6)]Gal(b1-4)Glc
# How it was run: as §1
# [29] = biological target: Gal(b1-4)GlcNAc(b1-3)[Gal(b1-4)GlcNAc(b1-6)]Gal(b1-4)GlcNAc
# How it was run: as §1
# [30] = biological target: Gal(b1-4)GlcNAc(b1-3)[GlcNAc(b1-6)]Gal(b1-4)GlcNAc
# How it was run: as §1
# [31] = biological target: Gal(b1-4)GlcNAc(b1-6)Gal(b1-4)GlcNAc
# How it was run: as §1
# [32] = biological target: Gal(b1-4)GlcNAc(b1-6)GalNAc
# How it was run: as §1
# [33] = biological target: Gal(b1-4)GlcNAc(b1-6)[Gal(b1-3)]GalNAc
# How it was run: as §1
# [34] = biological target: Gal(b1-4)GlcNAc(b1-6)[Gal(b1-4)GlcNAc(b1-3)]GalNAc
# How it was run: as §1
# Gal(b1-4)GlcNAc6P = biological target: Gal(b1-4)GlcNAc6P
# How it was run: as §1
# Gal(b1-6)Gal = biological target: Gal(b1-6)Gal
# How it was run: as §1
# Gal3S(b1-3)GalNAc = biological target: Gal3S(b1-3)GalNAc
# How it was run: as §1
# Gal3S(b1-3)GlcNAc = biological target: Gal3S(b1-3)GlcNAc
# How it was run: as §1
binder,measurement,setting,value
B1,glycan array binding signal (z-score),[1],-0.492
same,glycan array binding signal (z-score),[2],1.89
same,glycan array binding signal (z-score),[3],-0.488
same,glycan array binding signal (z-score),[4],-0.431
same,glycan array binding signal (z-score),[5],-0.723
same,glycan array binding signal (z-score),[6],0.103
same,glycan array binding signal (z-score),[7],-0.56
same,glycan array binding signal (z-score),[8],0.358
same,glycan array binding signal (z-score),[9],3.33
same,glycan array binding signal (z-score),[10],2.73
same,glycan array binding signal (z-score),[11],0.187
same,glycan array binding signal (z-score),[12],1.28
same,glycan array binding signal (z-score),[13],1.35
same,glycan array binding signal (z-score),[14],0.569
same,glycan array binding signal (z-score),[15],2.13
same,glycan array binding signal (z-score),[16],0.763
same,glycan array binding signal (z-score),[17],0.351
same,glycan array binding signal (z-score),[18],2.36
same,glycan array binding signal (z-score),[19],2.6
same,glycan array binding signal (z-score),[20],1.63
same,glycan array binding signal (z-score),[21],1.6
same,glycan array binding signal (z-score),[22],1.32
same,glycan array binding signal (z-score),[23],0.46
same,glycan array binding signal (z-score),[24],0.03
same,glycan array binding signal (z-score),[25],1.43
same,glycan array binding signal (z-score),[26],0.11
same,glycan array binding signal (z-score),[27],0.835
same,glycan array binding signal (z-score),[28],0.144
same,glycan array binding signal (z-score),[29],-0.617
same,glycan array binding signal (z-score),[30],-0.685
same,glycan array binding signal (z-score),[31],-0.234
same,glycan array binding signal (z-score),[32],0.205
same,glycan array binding signal (z-score),[33],0.811
same,glycan array binding signal (z-score),[34],0.527
same,glycan array binding signal (z-score),Gal(b1-4)GlcNAc6P,-0.459
same,glycan array binding signal (z-score),Gal(b1-6)Gal,-0.2
same,glycan array binding signal (z-score),Gal3S(b1-3)GalNAc,0.065
same,glycan array binding signal (z-score),Gal3S(b1-3)GlcNAc,-0.427
